# Assay results from the RNAGym collection of RNA variant scans (doi:10.1073/pnas.2313332121).
# Variants at the background level are over-represented here.
# B1: TPR 5TU (parent)
# chain: GGAUCUUCUCGAUCUAACAAAAAAGACAAAUCUGCCACAAAGCUUGAGAGCAUCUUCGGAUGCAGAGGCGGCAGCCUUCGGUGGCGCGAUAGCGCCAACGUUCUCAACUAUGACACGCAAAACGCGUGCUCCGUUGAAUGGAGUUUAUCAUG
# Variants of: B1
# Experiment: polymerase ribozyme fitness, log enrichment relative to wild type (log ratio); higher = more active; in vitro selection for triplet polymerase activity
# How it was run: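 Mutant libraries were PCR-built and transcribed for each subunit of a heterodimeric triplet polymerase ribozyme and selected for one round in triplicate at −7 °C, frozen, before gel excision of extended constructs and streptavidin-bead capture. Input and output libraries were Illumina-sequenced, keeping genotypes with ≥10 input reads and ≥1 read per output. Fitness is a logarithmic ratio of genotype to wild-type enrichment, in base 2, using inverse-variance-weighted replicate averages.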
row,Variant,polymerase ribozyme fitness (log ratio)
1,GGAUCUUCUAGAUCUACCAAAAAAGACAAAUCUGCCACAAAUCUUGAGAGCAUCUUCGGAUGCAGAGGCGGCAGCCUUCGGUGGCGCGAUAGCGCCAACGUUCUCAACUGUGACACGCAAAACGUGUGCUCCGUUGAAUGGAGUUUAUCAUG,≤ -4.2
2,GGAUCUUCGCGAUCUAACAAAAAAGACAAAUCUGCCACAAAGCUUGAGAGCAUCUUCGUAUGCAGAGGCGGCAGCCUUCGGUGGCGGGAUAGCGCCUACGUUCUCAUCUAUGACACGCAAAACGCGUGCUCCGUUGAAUGGAGUUUAUCUUG,≤ -4.2
3,GGAUCUUCGCGAUCAAACAAAAAAGACAAAUCUGCCACAAAGCUUGAGAGCAUCUUCGGAUGCAGAGGCGGCAGCCUUCGGUGGCGCGAUAGCGCCAUCGUUCUCAAUUAUGACACGCAAAACGCGUGCUCCGUUGAAUGCAGUUUAUCAUG,≤ -4.2
4,GGAUCUUCUAGGUCUAACAACAAAGACAAAUCUGCCACAAAGCUUGAGAGCAUAUUCGGAUGCAGAGGCGGCAGCCUUCGGUGGCGCGAUAGCGCCAACGUUCUCAACUAUGACACGCAAAACGCGUGCUCCGUUGAAUGGAGUUUAUCAUG,≤ -4.2
5,GGAUCUUCUAGAUCUUACAAAAAAGACGAAUCUGCCACAAAACUUGAGAGCAUCUUUGGAUGCAGAGGCGGCAGGCUUCAGUGGCGCGAUAUCGCCAUCGUUCUCAACUAUGACACGCAAAACGCGUGCUCCGUUGAAUGGAGUUUAUCAUG,≤ -4.2
6,GGAUCUUCGCGAUCUAACAAAAAAGACAAAUCUGCCACAAAGCUUGAGAACAUCUUCGGAUGCAGAGGCGGCAGCCUUCGGUAGCGCGAUAGCGCCAACGUUCUCAACUAUGACACGCAAAACGCGUGCUCCUUUGAAUGGAGUUUAUCAUG,≤ -4.2
7,GGAUCUUCUAGAUCUACCAAAAAAGACAAGUCUGCCACAAAGCUUGAGAGCAUCUUCGGAUGCAGAGGCGGCAGCCUUCGGUGGCGCGAUAGCGCCAACGUUCACAACUAUGACACGCAAAACGCGUGCUCCGUUGCAUGGAGUUUAUCAUG,≤ -4.2
8,GGAUCUUCGCGAUCUAACAAAAAAGACAAAUCUGCCACAAAGCUUGAGAGCAUCUUCGGAUGCAGAGGCGGCAGCCUUCGGUGGCGCGAUAGCGCCAACGUUCUCAACUAUGACACGCAAAACGCGUGCUCCGGUGAAUGGAGUUUAUCAUG,≤ -4.2
9,GGAUCUUCUAGAUCUUACAAAAAAGACAAAUCUGCCACAAAGCUUGAGAGCAUCUUCGGAUGCAGAGGCGGCAGGCUUCGGUGUCGCGAUAGCGCCAACGUUCUCAACUAUGACACGCAAAACGCGUGCUCCGUUGAAUGGAGUUUAUCAUC,≤ -4.2
10,GGAUCUUCGCGAUCUAACAAAAAAGACAAAUCUGCCACAAAGCUUGAGAGCAACUUCGGAUGCAGGGGCGGCAGCCUCCGGUGGCGCGAUAGCGCCAACGUGCUCAACUAUGACACGCAAAACGCGUGCUCCGUUGAAUGGAGUUUAACAUC,≤ -4.2
11,GGAUCUUCGCGAUCUAACAAAAAAGACAAAUCUGCCACAAAGCUUGAGAGCAUCUUCGCAUCCAGAGGCGGCAGCCUUCGGUGGAGCGAUAGCGCCAACGUUCUCAACGAUGACACGCAAAACGCGUGGUCCGUUGAAUGGACUUUAUCAUG,≤ -4.2
12,GGAUCUUCGCGAUCUAACAAAAAAGACAAAUCUGCCACAAAGCUGGAGAGCAUCUGCAGAUGCAGAGGCGGCAGCCUUCGGUGGUGCGAUAACGCCUACGUUCUCAACUAUGACACGCAAAACGCGUGCUCCGUUGAAUGGAGUUUAUCAUG,≤ -4.2
13,GGAUCUUCGCGAUCUAACAAAAAAGACAAAUCUGCCACAAAGCUUGAGAGCAUCUUCGGAUGCAGAGGCGGCAGCCUUCGGUGGCGCGAUAGUGCCAACGUUCUCAACUAUGACACGCAAAACGCGUGCUCCGUUGAAUGGAGUUUAUCAUG,≤ -4.2
14,GGAUCUUCGCGAUCUAACAAAAAAGACAAAUCUGCCACAAAGCUUGAGAGCAUCUUCCGAUGCAGAGGCGGCAGCCUUCGGUGGCGCGAUAGCGCCAACGUUCUCAACUAUGACACGCAAAACGCGUGCUCCGUUGAAUGGAGUUUAUCAUG,≤ -4.2
15,GGAUCUUCGCGAUCUAACAAAAAAGACAAAUCUGCCACAAAGCUUGAGAGCAACUUCGGAUGCAGAGGCGGCAGCCUUCGGUGGCGCGAUGGCCCCAACGUUCUCAACUAUGACACGCAAAACGCGUGCUCCGUUGAAUGGAAUUUAUCAUG,≤ -4.2
16,GGAUCUUCUAGAUCUACCCAAAAAGACAAAUCUGCCACAAAGCUUGAGAGCAUCUUCGGAUGCAGAGGCGGCAGCCUUCGGUGACGCGAAAGCGCCAACGUUCUCAACUAUGACACGCAAAACGCGUGAUCCGUUGAAUGGAGUUUUUCAUG,≤ -4.2
17,GGAUCUUCUAGUUCUAACAAAAAAGACAAAUCUGCCACAAAGCUUGUGAGCAUCUUCGGAUGCAGAGGCGGCAGCCUUCGGUGGCGCGAUAGGGCCAACGUUCUCAACUAUGACACGCAAAACGCGUGCUCCGUUGGAUGGAGUUUAUCAUG,≤ -4.2
18,GGAUCUUCGCGAUCUAACAAAAAAGACAAAUCUGCCACAAAGCUUGAGAGCAUCUUCGGAUGCAGAGGCGGCAGCCUUCGGUGGCGCGAUAGCGCCAACGUUAUCAACUAUGACACGCAAAACGCGUGCUCCGUUGAAUGGAGUUUAUCAUG,-3.73
19,GGAUCUUCGCGAUCUAACAAAAAAGACAAAUCUGCCACAAAGCUUGAGAGCAUCUUCGGAUGCAGAGGCGGCAGCCUUCGGUGGCGCGAUAGCGCCAACGUUCUGAACUAUGACACGCAAAACGCGUGCUCCGUUGAAUGGAAUUUAUCAUG,≤ -4.2

row,Variant,polymerase ribozyme fitness (log ratio)
1,GGAUCUUCGCGAUCUAACAAAAAAGACAAAGCUGCCACAAAGCUUGAGAGCAUCUUCGGAUGCACAGGCGGCAGCCUUGGGUGGUGCGAUAGCGCCAACGUUCUCAACUAUGACACGCAAAACGCGUGCUGCGUUGAAUGGAGUUUAUCAUG,≤ -4.2
2,GGAUCUUCUAGUUCUAACAAAAAAGACAAAUCUGCCACAAAGCUUGAGAGCAUCUUCGGAUGCAGAGGCGGCAGCCUUCCGUGGCGCGAUAGCACCAACGUUCUCAACUAUGACACGCAAAACGCGUGCUCCGUUGAAUGGAGUUUAUCAUG,≤ -4.2
3,GGAUCUUCUAGAUCUACCACAAAAGACAAAUCUUCCACAAAGCUUGAGAGCAUCUUCCGAUGCAGAGGCGGCAGCCUUCGGUGGCGCGAGAGCGCCAACGUUCUCAACUAUGACACGCAAAACGCGUGCUCCGUUGAAUGGAGUUUAUCAUG,≤ -4.2
4,GGAUCUUCGCGAGCUAACAGAAAAGACAAAUCUGCCACGAAGCUUGAGAGCAUCUUCGGAUGCACAGGCGGUAGCCUUCGGUGGCGCGAUUGCGCCAACGUUCUCAACUAUGACACGCAAAACGCGUGCUCCGCUGAAUGGAGUUUAUCAUG,≤ -4.2
5,GGAUCUUCGCGAUCUAACAAAAAAGACAAAUCUGCCACAAAGCUUGAGAGCAUCUUCGGAUGCAGAGCCGGCAGCCUUCGGUAACGCGAUAGCGCCAACGUUCUCAACUAUGACACGCAAAACGCGUGCUCCGUUGAAUGGAGUUUAUUAUG,≤ -4.2
6,GGAUCUUCGCGAUCUAACAAAAAAGACAAAUCUGCCACAAAGCUUGAGAGCAUCUUCGGAUGCAGAGGCGGCAGCCUUCGGUGGCGCGAUAGCGCACACGUUCUAACCUAUGACACGCAAAACGCGUGCUCCGUUGAAUGGAGUUUAUCAUG,≤ -4.2
7,GGAUCUUCGCGAUCUAACAAAAAAGACAAAUCUUCCACAAAGCUUGAGAGCAUCUUCGGAUGCAGAGGCGGCAGCCUUCGGUGGAGCGAUAGCGCCAACGUUCUCAACUAUGACACGCAAAACGCGUGCUCCGUUGAAAGGAGUUUAUCAUG,≤ -4.2
8,GGAUCUUCGCGAUCUAACAAAAAAGACAAAUCUGCCACAAAGCUUGAGAGCAUCUUCGGAUGCAGAGGCGUCAGCCUUCGGUGGCGCGAUCGCGCCAACGUUCUCUACUAUGACGCGCAAAACACGUGCUCCGUUGAAUGGAGUUUAUCAUG,≤ -4.2
9,GGAUCUUCGCCAUCUGACAAAAAAGACAAAUCUGCCACAAAGCUUGAGAGCAUUUUCGGAUGCAGAGGAGGCAGCCUUCGGUGGCGCGAUAGCGCCAACGUUCUCAACUAUGACACGCAAAACGCGUGCUCCGUUGAAUGGAAUUUAUCAUG,≤ -4.2
10,GGAUCUUCGCGAUCUAACAAAAAAGACAAAUCUGCCACAAAGCUUGAGAGCAUCGUCGGAUGCAGAGGCGGCAGCCUUCGGUGGCGCGAUAUCGCCAAUGUUCUCAACUAUGACACGCAAAACGAGUGCUCCGUUGAAUGGAGUUUAUCAUG,≤ -4.2
11,GGAUCUUCGCGAUCGAACAAAAAAGACAAAUCUGCCACAAAGCUUGAGAGCAUCUUCGGAUGCAGAGUCGGCAGCCUUCGGUGGCGCGAUAGCGCCAACGUUCUCAACUAUGACACGCAGAACGCGUGCUCCGUUGAAUGGAGUUUAUCAUG,≤ -4.2
12,GGAUCUUCGCGAUCUAACAAAAAAGACAAAUCUGCCACAAAGCUUGAGAGCAUCAUCGGAUGCAGAGGCGGCAGCCUUCGGUGGCGCGAUAGCGCCAACGUUCUCAACUAUGACGUGCAAAACGCGUGCUCCGUUGAAUGGAGUUUAUCAUG,≤ -4.2
13,GGAUCUUCGCCAUCUAACAAAAAAGACAAAUCUGCCACAAAGCUUCAGAGCAUCUUGGGAUGCAGAGGCGGCAGCCUUCGGUGGCGGGACAGCGCCAACGUUCUCAACUAUGACACGCAAAACGCGUGCUCCGUUGAAUGGAGUUUAUCAUG,≤ -4.2
14,GGAUCUUCUAGGUCUAACAAAAAAGACAAAUCUGCCACAAAGCUUGAGAGCAACAUCGGAUGCAGAGGCGGCAGCCUUCGGUGGCGCGAUACCCCCAACGUUCUUAACUAUGACACGCAAAACGCGUGCUCCGUUGAAUGGAGUUUAUCAUG,≤ -4.2
15,GGAUCUUCGCCAUCUAACAAAAAAGAUGAAUCUGCCACACAGCUUGAGAGCAAAUUCGGAUGCAGAGGCGGCAGCCUUCGGUGGCGCGAUAUCGCUAACGUUCUCAACUAUGACACGCAAAACGCGUGCUCCGUUGAAUGGAGUUUAUCAUG,≤ -4.2
16,GGAUCUUCGCGAUCUAACAAAAAAGACAAAUCUGCCACAAAGCUUGAGACCAUCUUCGGAUGCAGAGACGGCAGCCUUCGGUGGCGAGAUAGCGCCAACGUUCUCAACUAUGACACGCAAAACGCGUGCUCCGUUGAAUGGAGUUUAUCAUG,≤ -4.2
17,GGAUCUUCUAGAUCUUACAAAAAAGACAAAUCUGCCACAAAGCUUGAGAGCAUCUUCGGAUGCAGAGGCGGCAGCCUUCGGUGGCGCGAUAGGGCCAACGUUCUCAACUAUGACACGCAAAACGCGUGCUCCGUUGAAUGGAGUUUAUCAUG,≤ -4.2
18,GGAUCUUCGCGAUCUAACAAAAAAGACAAAUCUGCCACAAAGCUUGAGAGCAUCUUCGGAUGCAGAGGCGGCAGCCUUCGGAGGCGCGAUAGCCCCAACGUUCUCAACUAUGACACGCAAAACGCGUGCUCCGUUGAAUCGAGUUUAUCAUG,≤ -4.2
19,GGAUCUUCGCGAUCUAACAAAAAAGACAAAUCUGCCACAAAGCUUGAGAGCAUCUACGGAUGCAGAGGCGGCAGCCUUCGGUGGCGAGAUAGCGCCAACGUUCUCAGCUAUGACACGCAAAACGCGUGCUCCGUUGAAUGGAGUUUAUCAUG,≤ -4.2
